Assay results: the supplement of paper PMC11417369
The list shows a part of the results.

Tested on: PfAP2-HC AP2 domain (GST-tagged)
Assay: gcPBM binding intensity (ln(normalized median fluorescence intensity)); higher = stronger DNA binding
Method in brief: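 The highest Masliner-normalised natural-log median intensity across replicate spots of either probe orientation is reported as binding intensity. GST-tagged P. falciparum DNA-binding domains expressed in E. coli were applied for 1 h to an Agilent 4 × 180k array of primer-extended double-stranded 36-bp intergenic genomic probes plus negative controls, and bound protein was detected with Alexa488 anti-GST antibody and scanned at 488 nm.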

| Sequence | gcPBM binding intensity (ln) |
| --- | --- |
| TATATATATATTTAATGTACATGTTTATTTTATCAT [XGTACX_site499] | 9.8 |
| AATAAAATAAAAAAAAATAAAAAAAAAATAAAAAAT [XGTACX_negctrl_site245] | 9.92 |
| TATTTTTCTTTTTAAGTGCATGGTTGTATAAAATTT [GTGCAC_site9480] | 9.59 |
| TTTATAAAGGGAAAGGTGCAAAAGGTGAAAGTTTTA | 9.68 |
| ACATATATATATATATATATATATATATATAGATAG [CACACA_negctrl_site783] | 9.92 |
| CTTTTTACTTAATACACACACACACTAAAAAAAAAA [CACACA_site6574] | 10.3 |
| ACAAAAAAATATTTATGTACTTATTATATTTATAAT [XGTACX_site2059] | 9.49 |
| AAAACTAAATGTTATTCGCACACGGAATTTATTTAA [CACACA_site9221] | 9.77 |
| ATAAAGAAATTACACACATGCAATGAAAAAAAAAAA [TGCATGCA_site406] | 10 |
| ATATATATTATATATGCATGCCAAATCTTTATAAAC [TGCATGCA_site1042] | 9.64 |
| ATATGTATAAAAATCCGTACATAAGTGTGCGTATAT [XGTACX_site4376] | 9.85 |
| ATAAATAATATGTAAACACACAAAAAATAAAAATGA [CACACA_site1178] | 10.3 |
| ATGTTTGAGCCTAAGGTGCATATAAAAATATATGTG [GTGCAC_site9690] | 9.6 |
| TACTAAGAAGTATTTACACACCAACAAGGCGAAAAA [CACACA_site2944] | 9.78 |
| AAAAAAAAAAGAAATTGTACTTTTTGTTTAATAATT [XGTACX_site4681] | 9.41 |
| ATATTTTGTTATGAAACACACACATATATATATATA [CACACA_site9216] | 9.9 |
| TTGAGCCTACAAAAGGGTACACATTCAATTTATTTT [XGTACX_site6570] | 9.65 |
| TTTTGAATATGGATCTTATATATATTAAATAAATAA [CACACA_negctrl_site344] | 9.09 |
| ATTCCAGAAATATATTAACAAGGAAAATATAAAAAT [CACACA_negctrl_site343] | 9.54 |
| ATTATATACAAATAAAGTACATAAACAAATTCAGAA [XGTACX_site1187] | 10 |
| TATTTCAAACTGTTCTCACACACGAAATTAGAAATG [CACACA_site611] | 9.74 |
| ATAAAATGATGTATCTGTGTATGTTTATTTTGTTTT [XGTACX_negctrl_site367] | 10 |
| TAAAATAAAAAAGTAGTACACACTTCACGATATTTT [CACACA_site3896] | 9.91 |

| Sequence | gcPBM binding intensity (ln) |
| --- | --- |
| TTAAAAGTAAGCAAAGTGCATATAACAAAAGTAAAG | 9.86 |
| AATATAAAACTTTAGAGTACTTATCATTAAAATATA [XGTACX_site4509] | 9.31 |
| ATTAATAATGAAAAAAAACACACGGTACATTCAAAG [CACACA_site1302] | 10 |
| TATATAAGAACTTTTACACACATGAAAATGTAGATA [CACACA_site7711] | 9.67 |
| TATATATATATATATACACACATACAGATATATATT [CACACA_site4629] | 9.88 |
| ATATACACATATACATGTACAAATATATATACACAT [XGTACX_site2986] | 9.88 |
| TTACTATTATTATTTTTTATTTTTATTTTATTTATT [TGCATGCA_negctrl_site269] | 9.93 |
| CACTAAAAGAAACACACACACACACCCATATATATA [CACACA_site4151] | 11 |
| TTGTAAGAAAGACACACACACACATATAAATATGTA [CACACA_site6516] | 10.8 |
| TATTTAAAATAATGTGCAAAAGAATAAATAAATAAA [TGCATGCA_negctrl_site194] | 9.74 |
| TTCATTTTCATATATTGTACAAAATTTTATAAGGTT [XGTACX_site4522] | 9.58 |
| ATATATATATATAATACACACTAAAGTAACATAATA [CACACA_site5580] | 9.85 |
| TGTATATAATCGAGTGCACACACAAAAAAAAAGTGA [CACACA_site8417] | 10.3 |
| AAAAAAAAAAAAAAAACACACACATATATATATATA [CACACA_site8571] | 9.9 |
| TTCATGTCCTATTAATGTACTCTACACACATATAAG [XGTACX_site899] | 9.89 |
| TTTATTTATTTTTGTTGTACACTTGTATATATTATT [XGTACX_site6486] | 10 |
| ATTTTATATACACTTTGTACTTATTTTATTCTTCTT [XGTACX_site4200] | 9.93 |
| TACGCAACCAAAAGTTGTACTAATTTTTTTTTTTTG [XGTACX_site7432] | 9.55 |
| ATATATTTTATACATACACACATATAAATATTTTTT [CACACA_site7780] | 9.83 |
| GGAACAAATAATATCACACATATATATATATATATA [CACACA_site5670] | 9.86 |
| TAATAAATATATTGAAGTACTTATAAAAAGCAATAT [XGTACX_site6262] | 9.8 |
| TACGGGAAAGATAAGAAACACACGGAAAATTAGACG [CACACA_site1661] | 9.99 |
| TTTTTTAATACATATGCATGTTCAAGTACGAAAAAA [TGCATGCA_site641] | 9.28 |

| Sequence | gcPBM binding intensity (ln) |
| --- | --- |
| TATTAAACTTGACACACACACACACGCATATATAAA [CACACA_site6496] | 10.6 |
| AATAATGTTATAAATTGTACGTGTATTATTCATTAC [XGTACX_site894] | 9.8 |
| TAATGAGGAAATACAGCACACGTTATTACACTTTTC [CACACA_site5399] | 9.73 |
| AAATTGGTTCATCAATGTACATGTAAAATAAATCAA [XGTACX_site4795] | 9.7 |
| TATATTTATCCATACAAGAAAAAAAAAAAAAAAATA [CACACA_negctrl_site1328] | 9.44 |
| AAAAAAAAAAATATATTAAAATAAAAAATATTAACA [GTGCAC_negctrl_site13] | 9.45 |
| TACACCCACCCACATACACACACATACACATATATA [CACACA_site8503] | 10.8 |
| CCACTTAAAATAAAAAGTACATACAGGTGTTATACA [XGTACX_site8124] | 9.49 |
| TTTAAATAAAATATTACACACTTAGAAAGATATATA [CACACA_site7684] | 9.57 |
| AGCATATTATTTTAGGTGCACTTGAAATGTGTTAAC | 9.68 |
| TTTTTTTTTTATTGTACATGCAAAAAATTCCACACA [TGCATGCA_site279] | 9.53 |
| CAAATAAAAACAAAACGTACGAATAAATTATTGTTA [XGTACX_site5136] | 9.49 |
| TATTTGATCTAAAGAGCATGCAAAAACGAACAAGAT [TGCATGCA_site136] | 9.81 |
| ATATCGTTATTTTTATGTACTAAAATATTTAATTAT [XGTACX_site3516] | 9.72 |
| CACATATAAATATTAACACACATAATGAATTATATA [CACACA_site2741] | 9.79 |
| ATATATAAAAATTAGGTGCATTAAATTAAAATATAT | 9.64 |
| ACACAAATAAATATAACATATATATTATATTATATT [CACACA_negctrl_site710] | 9.73 |
| TTTATATAAATTTTTTGTACACAAGTAAAAACGCGT [XGTACX_site2459] | 9.36 |
| TCAATATTAAATTATTGTACATGTATGTATATATAT [XGTACX_site3861] | 9.58 |
| TTTTTTTTTTTTTTTTTACACACTTTATTCAAACAA [CACACA_site9360] | 9.32 |
| ATAAAATATATATATATAAAAATAAATACATAAATA [GTGCAC_negctrl_site157] | 9.82 |
| CATATACTTCTGTGCACACGAATATTTTTCTTCTTC [CACACA_site1407] | 9.97 |
| TGTTGTCCTAATTCTACACACAATGGTTTATTAAAA [CACACA_site2648] | 9.97 |

| Sequence | gcPBM binding intensity (ln) |
| --- | --- |
| TTTTAACGTAAAACATTGATGATATAAAAAATAGGA [GTGCAC_negctrl_site540] | 9.35 |
| TATACTCATATTTTTACACACATATTTTTTCATATA [CACACA_site5412] | 9.92 |
| TTTTTTTTTTTTTTTTTTTTCACATGTGTGGAAAAA [GTGCAC_negctrl_site352] | 8.88 |
| AATTTAAAATATATAGTACACACGTGAACACAAATA [CACACA_site416] | 9.78 |
| TTAAAATATACATAAACACACACAAAACGTTTAAGA [CACACA_site8267] | 10.4 |
| AGGATATATAAGTATACACACATATTTATATTTATA [CACACA_site6239] | 9.75 |
| TAACAATAACTTTATACACACATAATATATATATAT [CACACA_site3543] | 9.81 |
| TGTATTTATAATAAAACACACATTTTTAATGTGCTC [CACACA_site4908] | 9.74 |
| AAAAAAAAAAAAAACACACACACACCCATAAATATA [CACACA_site151] | 11.2 |
| TTTGTGTTTATAAATTGTACAAAGGTGCAAGAAGAA [XGTACX_site2159] | 9.8 |
| AAAAAAAAAAAACACACACACAATAGTATATAAATC [CACACA_site956] | 10.5 |
| ATATGATCATAAAACACACACACAAAAAAAAAAAAA [CACACA_site1806] | 10.8 |
| TTCAAGCCCTTCTGCTTACACACAGTAATTATTGTG [CACACA_site2952] | 10 |
| TATTTTTATTATATGGTGCATATATACATACATATA | 9.67 |
| AAGTGCATATTATTCACACATAATAATTGTATACCT [CACACA_site5965] | 9.74 |
| TGTAAATTATAACGTGCACACATATTTAAAATGAAA [CACACA_site8915] | 9.77 |
| ATATAGAAAATGCATACACACTTTATAAATATATTT [CACACA_site6553] | 9.82 |
| AGATATTTATTGAGTGCATGTTATAAAGGGAAAAAA [TGCATGCA_site88] | 9.56 |
| ATCCACTTTTTGAAGACACACACAAAAAAAAAAAAA [CACACA_site8818] | 9.73 |
| AATTAGATGGATAAATGTACATAATGTGAATATATT [XGTACX_site86] | 9.88 |
